Results on 77 molecules are retold here after the supplement of paper PMC10600219.

Each structure is given as a SMILES string. Counter-ions that a name gives are not always drawn. Over roughly 2,800 compounds, “cell viability relative to vehicle” has its median near 1.1; the lowest 2% begin near 0.19. This is one part of the list.

This assay deals with NCI-H2228 parental. In words: cell viability relative to vehicle (fraction of vehicle); NCI-H2228 is an ALK-positive lung cancer line and DTP means drug-tolerant persister; higher = less growth inhibition. The note with it: 100 nM; treatment time 6 days. In a few lines: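 The 3114-agent TargetMol anti-cancer compound library was tested at 100 nM for 6 days on parental NCI-H2228 cells and on persister cells derived with 1000 nM of a targeted drug for 13 days. ATP readout by the CellTiter-Glo 3D Cell Viability Assay gave cell viability relative to DMSO vehicle-treated cells.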
Consider `O=C(O)c1cc2ccccc2oc1=O` [Coumarin-3-carboxylic acid], for which the cell viability came out at 1.1.
The same measure for `CCOc1ccccc1OCCN[C@H](C)Cc1ccc(OC)c(S(N)(=O)=O)c1` [Tamsulosin hydrochloride]: 0.984; for `O=S(=O)(O)CCS` [Mesna]: 1.29; for `CN(C)C1CCN(C(=O)c2ccc(NC(=O)Nc3ccc(-c4nc(N5CCOCC5)nc(N5CCOCC5)n4)cc3)cc2)CC1` [Gedatolisib]: 0.26.
As to `O[C@H]1[C@H]2c3cc4c(cc3CN3CCC(=C[C@@H]1O)[C@H]23)OCO4` [Lycorine chloride], the cell viability came to 0.966.
`CCCCNC(=O)NS(=O)(=O)c1ccc(C)cc1` [Tolbutamide]: the cell viability was 1.06.
The same measure for `C[C@@H]1O[C@@H](O[C@H]2[C@H](Oc3cc(O)c(C(=O)CCc4ccc(O)cc4)c(O)c3)O[C@H](CO)[C@@H](O)[C@@H]2O)[C@H](O)[C@H](O)[C@H]1O` [Naringin dihydrochalcone]: 1.04; for `O=C(O)c1cc(-c2ccc(F)cc2F)ccc1O` [Diflunisal]: 1.07; for `O=C(Nc1c(Cl)cncc1Cl)c1ccc(OC(F)F)c(OCC2CC2)c1` [Roflumilast]: 1.07.
As to `C=CC(=O)N1CC/C(=C\c2ccc(F)c([N+](=O)[O-])c2)C(=O)/C(=C/c2ccc(F)c([N+](=O)[O-])c2)C1`, the cell viability was 1.08.
Turning to `CCCS(=O)(=O)Nc1ccc(F)c(C(=O)c2c[nH]c3ncc(-c4ccc(Cl)cc4)cc23)c1F` [Vemurafenib], the cell viability is 1.2.
In the case of `Cc1cc(C)c(NC(=O)C2CC3CCC2C3)c(C)c1` (configuration not stated) it was 1.12; in that of `CN(C)Cc1ccc(-c2nc3cccc4c3n2CCNC4=O)cc1`, 1.02; in that of `O=C(/C=C\n1cnc(-c2cc(C(F)(F)F)cc(C(F)(F)F)c2)n1)NNc1cnccn1` [Selinexor], 0.515.
The same measure for `CCCCCCc1ccc(O)cc1O` [Hexylresorcinol]: 1.07; for `Cc1[nH]c(/C=C2\C(=O)Nc3ccc(S(=O)(=O)N(C)c4cccc(Cl)c4)cc32)c(C)c1C(=O)N1CCN(C)CC1`: 1.06.
In the case of `CC1(C)NC(=O)N(c2ccc([N+](=O)[O-])c(C(F)(F)F)c2)C1=O` [Nilutamide] it was 0.866; in that of `CCC1C/C(=C\c2cccnc2)C(=O)/C(=C/c2cccnc2)C1` (configuration not stated), 1.06; in that of `COC(=O)[C@@H]1[C@H]2C[C@H]3c4[nH]c5ccccc5c4CCN3C[C@@H]2CC[C@@H]1O` [Yohimbine hydrochloride], 1.08.
As to `COc1ccc2cc([C@@H](C)C(=O)O)ccc2c1` [(R)-Naproxen], the cell viability came out at 1.17.
On to `CC(C)NCC(O)COc1cccc2ccccc12` (configuration not stated) [Propranolol hydrochloride], for which the cell viability was 1.09.
For `O=C(Nc1ccc(OC(F)(F)Cl)cc1)c1cnc(N2CC[C@@H](O)C2)c(-c2cc[nH]n2)c1` [Asciminib], the cell viability came to 1.11.
On to `Cc1nc(NC(=O)N2CCC[C@H]2C(N)=O)sc1-c1ccnc(C(C)(C)C(F)(F)F)c1` [Alpelisib], for which the cell viability amounted to 0.822.
The same measure for `CCCCc1nc(C)c(CC(=S)N(C)C)c(=O)n1Cc1ccc(-c2ccccc2-c2nnn[nH]2)cc1` [Fimasartan]: 1.02.
In the case of `COc1cc(OC)cc(-c2cc3cnc(N)nc3nc2NC(=O)NC(C)(C)C)c1` it was 0.857; in that of `COc1ccc2cc1Oc1ccc(cc1)C[C@H]1c3cc(c(OC)cc3CCN1C)Oc1c(OC)c(OC)cc3c1[C@H](C2)N(C)CC3` [Tetrandrine], 0.973; in that of `Nc1ncnc2c1c(-c1cnc3[nH]ccc3c1)nn2C1CCCC1`, 0.622.
In the case of `O=C1CCc2cc(OCCCCc3nnnn3C3CCCCC3)ccc2N1` [Cilostazol] it was 1.19; in that of `C=C(C)C1CC=C(C)CC1` (single isomer, unassigned; (+)) [(+)-Dipentene], 1.05.
Turning to `CCNC(=O)C#Cc1ccc2c(C(=Nc3ccc(CN(C)C)cc3)c3ccccc3)c(O)[nH]c2c1`, the cell viability stood at 0.236.
The same measure for `O=P(O)(O)C(Cl)(Cl)P(=O)(O)O` [Disodium clodronate tetrahydrate]: 1.14; for `Oc1ccc(-c2nc3cc(O)cc(Br)c3o2)cc1`: 1.11; for `Cc1coc2c1C(=O)C(=O)c1c-2ccc2c(C)cccc12` [Tanshinone I]: 1.01.
In the case of `CCC(C)SSc1ncc[nH]1` (configuration not stated) it was 0.956; in that of `CCC1=C(C)CN(C(=O)NCCc2ccc(S(=O)(=O)NC(=O)N[C@H]3CC[C@H](C)CC3)cc2)C1=O` [Glimepiride], 1.15.
In the case of `CC(C)=CC[C@H](O)C1=CC(=O)c2c(O)ccc(O)c2C1=O` [Alkannin] it was 0.875.
Turning to `C[C@@]12C[C@@]3(O)O[C@@H](O1)[C@]1(COC(=O)c4ccccc4)[C@H]3C[C@@]12O[C@@H]1O[C@H](CO)[C@@H](O)[C@H](O)[C@H]1O` [Paeoniflorin], the cell viability amounted to 1.2.
In the case of `N#C/C(=C/c1ccc(O)c(O)c1)C(=O)N1CCc2ccccc21` [Tyrphostin AG 528], the cell viability is 1.11.
Turning to `CCCCCCCCc1ccc(CCC(N)(CO)CO)cc1` [Fingolimod hydrochloride], the cell viability was 1.02.
The same measure for `CCN(CC)CCOc1ccc(Nc2nc(-c3ccccc3NC(=O)CCN3CCN(C)CC3)nc3ccccc23)cc1`: 1.15; for `C[C@]12CC[C@@H]3c4ccc(O)cc4CC[C@H]3[C@@H]1CCC2=O` [Aquacrine]: 1.1; for `CC(C)[C@H](NC(=O)[C@H](CC(=O)O)NC(=O)[C@H](CCCCN)NC(=O)[C@@H](N)CCCN=C(N)N)C(=O)N[C@@H](Cc1ccc(O)cc1)C(=O)O` [Thymopentin]: 1.2.
The same measure for `Cc1cc(-n2cccc2)c(S(C)(=O)=O)cc1C(=O)N=C(N)N` [Eniporide]: 1.24; for `CCOC(=O)C1=C[C@]2(CC)CCCN3CCc4c(n1c1ccccc41)[C@@H]32` [Vinpocetine]: 1.19; for `CC(C)c1cc(C(=O)N2Cc3ccc(CN4CCN(C)CC4)cc3C2)c(O)cc1O` [Onalespib]: 0.29.
In the case of `CN1CCC(COc2cnc(-c3cccc(Cn4nc(-c5cccc(C#N)c5)ccc4=O)c3)nc2)CC1` [Tepotinib] it was 1.2; in that of `Cc1c[nH]c2nc(Nc3ccc(N4CCN(C)CC4)c(F)c3)nc(-c3cccc(CC#N)c3)c12`, 0.777; in that of `O=C(O)CCC(=O)Nc1ccc(S(=O)(=O)Nc2nccs2)cc1` [Succinylsulfathiazole], 1.12.
With `O=C(O)CCn1c2c(c3ccccc31)C[C@H](NS(=O)(=O)c1ccc(F)cc1)CC2` [Ramatroban], the cell viability amounted to 0.815.
In the case of `COc1cnc(NS(=O)(=O)c2ccc(N)cc2)nc1` [Sulfameter] it was 1.17; in that of `Cc1cccc(CN2CCN(C(c3ccccc3)c3ccc(Cl)cc3)CC2)c1` (configuration not stated) [Meclizine dihydrochloride], 1.01.
In the case of `NC(Cc1ccccc1O)C(=O)O` (racemic) [DL-O-Tyrosine] it was 1.03; in that of `OC1CCC(Oc2cccc3cnc(Nc4ccc5nc[nH]c5c4)nc23)CC1` (configuration not stated), 0.504.
In the case of `O=NN(CCCl)C(=O)NC1CCCCC1` [Lomustine], the cell viability amounted to 0.994.
The same measure for `CCOc1ccc(-c2nc(-c3cccc4c3CCC4NCCO)no2)cc1OCC` (configuration not stated): 0.97; for `O=c1c2cc(O)c(O)cc2oc2cc(O)c([C@@H]3O[C@H](CO)[C@@H](O)[C@H](O)[C@H]3O)c(O)c12` [Mangiferin]: 1.12.
In the case of `CC1=C[C@]2(O)O[C@@]3(CC2=C(C)C)[C@@H](C)CC[C@@H]13` [Curcumenol] it was 1.1; in that of `Cc1nnc(C(C)C)n1C1C[C@H]2CC[C@@H](C1)N2CC[C@H](NC(=O)C1CCC(F)(F)CC1)c1ccccc1` (stereo in doubt) [Maraviroc], 1.05.
In the case of `COc1ccc(-c2cc(=O)c3c(O)cc(O[C@@H]4O[C@H](CO[C@@H]5O[C@@H](C)[C@H](O)[C@@H](O)[C@H]5O)[C@@H](O)[C@H](O)[C@H]4O)cc3o2)cc1O` [Diosmin] it was 1.06; in that of `COc1cc(Nc2ncc(F)c(Nc3ccc4c(n3)N(COP(=O)(O)O)C(=O)C(C)(C)O4)n2)cc(OC)c1OC` [Fostamatinib], 1.03.
Consider `COC(=O)c1cc(OC)c2c(c1-c1c(CO)cc(OC)c3c1OCO3)OCO2` [Bicyclol], for which the cell viability is 0.898.
The same measure for `CC1CS(=O)(=O)CCN1/N=C/c1ccc([N+](=O)[O-])o1` (configuration not stated) [Nifurtimox]: 1.02.
The same measure for `COC1=C2C[C@@H](C)C[C@H](OC)[C@H](O)[C@@H](C)/C=C(\C)[C@H](OC(N)=O)[C@@H](OC)/C=C\C=C(/C)C(=O)NC(=CC1=O)C2=O` [Geldanamycin]: 1.02; for `Oc1cc(CN2CCOCC2)c(O)cc1CN1CCOCC1`: 1.06; for `CN1CC2c3ccccc3Oc3ccc(Cl)cc3C2C1` (configuration not stated) [Asenapine Maleate]: 1.15.
As for `c1ccc2[nH]c(-c3cscn3)nc2c1` [Thiabendazole], the cell viability was found to be 1.23.
Consider `Cn1cc(-c2ccc3nnc(C(F)(F)c4ccc5ncccc5c4)n3n2)cn1`, for which the cell viability is 1.01.
In the case of `CN1[C@@H](CC(=O)c2ccccc2)CCC[C@H]1C[C@H](O)c1ccccc1` [Lobeline hydrochloride] it was 0.988; in that of `CCC(CC)CC1(C(=O)Nc2ccccc2SC(=O)C(C)C)CCCCC1` [Dalcetrapib], 1.1; in that of `CCc1cnn2c(NCc3ccc[n+]([O-])c3)cc(N3CCCC[C@H]3CCO)nc12` [Dinaciclib], 0.118.
The same measure for `O=C1NC(=O)[C@@H](c2cn3c4c(cccc24)CCC3)[C@@H]1c1c[nH]c2ccccc12` [Tivantinib]: 0.933.
Regarding `CC(=O)Nc1ccc(C(=O)NC(C)(C)C)cc1`, the cell viability turned out to be 0.944.
In the case of `CCCN1CCN(c2ccc(C(=O)NC3(C(=O)NCC#N)CCCCC3)cc2)CC1` [Balicatib] it was 1.07; in that of `C[C@H]1Oc2cc(cnc2N)-c2c(nn(C)c2C#N)CN(C)C(=O)c2ccc(F)cc21` [Lorlatinib], 0.659; in that of `C[C@@]1(c2cc(-c3cncnc3)c(F)cc2F)CCSC(N)=N1`, 1.07.
The same measure for `CC(C(=O)Nc1cccc(/N=C/c2c(O)ccc3ccccc23)c1)c1ccccc1` (configuration not stated) [Salermide]: 1.06; for `CC(C)Cc1ccc(-c2nc(-c3ccc(CN4CC(C(=O)O)C4)c(F)c3)no2)cc1` [S1p-receptor-agonist-1]: 1.05.
